No constants are given. Whether binding was seen depends on the method and setting. Some binding calls cover weakened binding; strength is not graded here. For some assays here: Sequences can lack the tags named with a protein.
What was measured:
[1] = target: BD-Rfa1-FLAB (lexA DNA binding domain fused to Rfa1 truncated at tryptophan 413; plasmid pGP1) (S. cerevisiae) (UniProt P22336); assay: two-hybrid; directed test by replica plating: EGY48 (6xOlexA-LEU2) with lexA bait, B42 prey and pSH18-34 (8xOlexA-lacZ); growth on SG-HTUL and/or blue colour on SG-HTU+X-gal; also done in EGY48 strains with rfa2-Dx or rfa2-Ax in place of RFA2 (Fig. 2E)
[2] = target: BD-Rfa1, full-length (lexA DNA binding domain fused to Rfa1; plasmids pSJH101 and pPM07) (S. cerevisiae) (UniProt P22336); assay: as above
[3] = target: BD-Rfa1, full-length (plasmid pENM17) (S. cerevisiae) (UniProt P22336); assay: as above
[4] = target: BD-Rfa1-FLAB (lexA DNA binding domain fused to Rfa1 truncated at tryptophan 413; plasmid pGP1) (S. cerevisiae) (UniProt P22336); assay: as above; remark: listed apart in the source
[5] = target: BD-Rfa1-t11 (plasmid pENM21) (S. cerevisiae) (UniProt P22336); assay: as above
[6] = target: BD-Rfa1-t11 (plasmid pENM21) (S. cerevisiae) (UniProt P22336); assay: two-hybrid; liquid beta-galactosidase assay of the EGY48 cells of Fig. 2C (pSJH101 or pENM21 bait, pGP2 prey, pSH18-34); four independent transformants in one experiment; normalised to BD-Rfa1 (pPM07) with AD-Rad24-ΔN
[7] = target: BD-Rfa1-FLAB (lexA DNA binding domain fused to Rfa1 truncated at tryptophan 413; plasmid pGP1) (S. cerevisiae) (UniProt P22336); assay: two-hybrid; library screen: DupLEX-A system, bait BD-Rfa1-FLAB (pGP1) in EGY48 (6xOlexA-LEU2) with pSH18-34 (8xOlexA-lacZ), S. cerevisiae genomic DNA prey library in pJG4-5; selection by growth on SG-His-Trp-Ura-Leu at 30°C, retest on SD-HTUL and SG-HTUL; prey inserts sequenced
[8] = target: BD-Rfa1, full-length (lexA DNA binding domain fused to Rfa1; plasmids pSJH101 and pPM07) (S. cerevisiae) (UniProt P22336); assay: two-hybrid; liquid beta-galactosidase (ONPG) assay in EGY188 with pSH18-34; pGAL-lexA bait plasmids and B42 prey induced with 2% galactose for 5 hr at 30°C; Miller units normalised to BD-Rfa1 (pPM07) with AD-Rad24-ΔN (pGP2)

Protein sequences, listed by entry. Tags and fused reporters are not part of them. Lines headed by an entry give the natural chain unless they say otherwise; changes in a name come on top. Chains listed by the source or under a name are the forms on record and can include a tag or linker. Residues count along the entry.
UniProt P22336: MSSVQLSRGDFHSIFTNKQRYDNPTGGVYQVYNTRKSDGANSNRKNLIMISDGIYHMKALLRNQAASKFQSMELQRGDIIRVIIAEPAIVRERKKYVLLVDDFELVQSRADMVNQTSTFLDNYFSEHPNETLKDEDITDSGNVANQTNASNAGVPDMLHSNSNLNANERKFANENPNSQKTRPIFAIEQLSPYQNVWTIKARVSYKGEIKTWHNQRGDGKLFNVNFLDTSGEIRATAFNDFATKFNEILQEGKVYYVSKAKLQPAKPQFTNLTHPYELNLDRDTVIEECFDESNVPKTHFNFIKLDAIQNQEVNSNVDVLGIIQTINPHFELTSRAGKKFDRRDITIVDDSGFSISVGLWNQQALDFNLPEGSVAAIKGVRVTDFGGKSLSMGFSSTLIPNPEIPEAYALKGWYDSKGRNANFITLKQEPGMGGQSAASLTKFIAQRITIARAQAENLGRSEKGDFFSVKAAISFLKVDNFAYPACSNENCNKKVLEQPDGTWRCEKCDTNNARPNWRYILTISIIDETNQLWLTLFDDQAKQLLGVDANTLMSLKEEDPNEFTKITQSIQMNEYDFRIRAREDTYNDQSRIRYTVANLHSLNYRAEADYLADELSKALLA
BD-Rfa1-FLAB (lexA DNA binding domain fused to Rfa1 truncated at tryptophan 413; plasmid pGP1): residues 1-412 of P22336
BD-Rfa1-t11 (plasmid pENM21) (P22336, form named): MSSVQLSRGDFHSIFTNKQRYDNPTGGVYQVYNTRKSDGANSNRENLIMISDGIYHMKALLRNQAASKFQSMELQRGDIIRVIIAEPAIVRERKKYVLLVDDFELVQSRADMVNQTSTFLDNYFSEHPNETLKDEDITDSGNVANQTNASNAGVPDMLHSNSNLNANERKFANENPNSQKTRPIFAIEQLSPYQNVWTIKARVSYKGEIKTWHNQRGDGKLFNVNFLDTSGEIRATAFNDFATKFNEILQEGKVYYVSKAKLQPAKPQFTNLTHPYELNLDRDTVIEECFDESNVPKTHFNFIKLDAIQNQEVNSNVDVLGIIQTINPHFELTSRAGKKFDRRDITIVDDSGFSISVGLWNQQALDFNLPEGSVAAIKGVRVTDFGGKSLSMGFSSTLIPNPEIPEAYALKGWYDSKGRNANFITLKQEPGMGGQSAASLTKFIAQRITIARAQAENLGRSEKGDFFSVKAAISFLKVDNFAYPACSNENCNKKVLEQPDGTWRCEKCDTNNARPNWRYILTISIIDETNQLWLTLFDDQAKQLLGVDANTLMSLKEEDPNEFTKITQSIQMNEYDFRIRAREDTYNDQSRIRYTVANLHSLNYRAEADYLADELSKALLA
UniProt P26754: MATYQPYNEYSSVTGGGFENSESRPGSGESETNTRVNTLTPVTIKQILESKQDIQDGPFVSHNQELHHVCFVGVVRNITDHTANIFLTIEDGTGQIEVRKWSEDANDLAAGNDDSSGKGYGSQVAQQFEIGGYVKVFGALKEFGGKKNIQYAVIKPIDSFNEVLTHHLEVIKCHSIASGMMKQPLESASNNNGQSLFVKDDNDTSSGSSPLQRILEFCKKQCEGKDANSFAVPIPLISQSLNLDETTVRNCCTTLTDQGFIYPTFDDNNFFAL
UniProt P26755: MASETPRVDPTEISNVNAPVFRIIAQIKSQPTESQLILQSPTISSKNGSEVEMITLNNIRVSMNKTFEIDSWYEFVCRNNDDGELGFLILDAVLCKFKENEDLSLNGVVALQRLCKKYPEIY

Molecule: AD-Rfa2 (B42 activation domain fused to Rfa2; plasmid pENM11) (from UniProt P26754 1-273)
- binding [1]: no binding

Molecule: AD-Rfa3 (B42 activation domain fused to Rfa3; plasmid pENM12) (from UniProt P26755 1-122)
- binding [1]: no binding

B1: AD-Rad24-ΔN (Rad24 C-terminal peptide, aa 461-659; plasmid pGP2) (domain or fragment, UniProt P32641 461-659)
chain: EDWLNVSLYKYNAVHSFRNITLEFGYYAPLIRKCQSYKKKYILYYLKNLPSGSSGPKQTMDKFSDIMKVENGIDVVDRIGGPIEALSVEDGLAPLMDNDSNNCDHLEDQKKERDRRLRMLIDQYERNVMMANDDLEDEETSFNDDPIVDSDSDNSNNIGNETFGRSDEDESLCEILSQRQPRKAPVISESLSDSDLEIL
- binding [2]: binds
- binding [3]: binds
- binding [4]: binds
- binding [5]: binds
- binding [6]: binds
- binding [7]: binds
- binding [8]: binds

B2: Rad24-ΔC1 (Rad24 C-terminal peptide 461-659 with aa 461-527 deleted) (domain or fragment, UniProt P32641 528-659)
chain: KVENGIDVVDRIGGPIEALSVEDGLAPLMDNDSNNCDHLEDQKKERDRRLRMLIDQYERNVMMANDDLEDEETSFNDDPIVDSDSDNSNNIGNETFGRSDEDESLCEILSQRQPRKAPVISESLSDSDLEIL
- binding [2]: binds
- binding [4]: binds

B3: Rad24-ΔC2 (Rad24 C-terminal peptide 461-659 with aa 528-594 deleted) (domain or fragment, UniProt P32641)
chain: EDWLNVSLYKYNAVHSFRNITLEFGYYAPLIRKCQSYKKKYILYYLKNLPSGSSGPKQTMDKFSDIMLEDEETSFNDDPIVDSDSDNSNNIGNETFGRSDEDESLCEILSQRQPRKAPVISESLSDSDLEIL
- binding [2]: binds
- binding [4]: binds

B4: AD-Rad24-ΔC (Rad24 aa 1-460; plasmid pGP18) (domain or fragment, UniProt P32641 1-460)
chain: MDSTNLNKRPLLQYSLSSLGSQITKWSSSRPTSPVRKARSTENDFLSKQDTSSILPSINDDGGEQWYEKFKPNCLEQVAIHKRKLKDVQEALDAMFLPNAKHRILLLSGPSGCSKSTVIKELSKILVPKYRQNSNGTSFRSTPNEHKVTEFRGDCIVNDLPQMESFSEFLKGARYLVMSNLSLILIEDLPNVFHIDTRRRFQQLILQWLYSSEPLLPPLVICITECEIPENDNNYRKFGIDYTFSAETIMNKEILMHPRLKRIKFNPINSTLLKKHLKFICVQNMKMLKEKNKWNKRQEVIDYIAQETGDIRSAITTLQFWATSSGSLPISTRESTISYFHAIGKVIHGSHSTNNDNEMINNLFENSNNLLSKEDFKLGILENYNTFNKGEFSISDASSIVDCLSECDNMNGLPESNEYGLREVRKTFRNISKQGHNHGTVYFPREWKVRKLQNSFKVQA
- binding [8]: no binding

Source: publication PMC4342240
